In PMC1363732:
No constants are given. Whether binding was seen depends on the method and setting. For some assays here: Binding seen in cells or lysates may run through a third protein. Some entries that bind do so weakly or less than the wild type. For some assays here: Where a sequence is shown, tags or fusion partners need not be part of it.

Columns and labels:
GST-SUV39H1 N44 (human) = GST-SUV39H1 N44 (human) (UniProt O43463); assay: pull-down; wild type or mutant GST-SUV39H1 or GST (2 ug) bound to Glutathione-Sepharose 4B, mixed with His-tagged Tax (2 ug) in cold PBS, 4°C, one hour; immunoblot with Lt-4; band intensities by NIH Image; both purified
[1] = target: bacterially expressed GST-SUV39H1, wild type (human) (UniProt O43463); assay: as above
GST-SUV39H1 ΔN89 (human) = GST-SUV39H1 ΔN89 (human) (UniProt O43463); assay: as above
[2] = target: GST-SUV39H1 cycSET (human) (UniProt O43463); assay: as above
[3] = target: T1, GST-tagged SUV39H1 (pMEG-SUV39H1) (human) (UniProt O43463); assay: pull-down; HEK293T cells co-transfected with GST-SUV39H1 or GST and Tax; after 48 h lysate affinity purified with Glutathione Sepharose 4B; immunoblot with anti-Tax Lt-4
T1 sequence: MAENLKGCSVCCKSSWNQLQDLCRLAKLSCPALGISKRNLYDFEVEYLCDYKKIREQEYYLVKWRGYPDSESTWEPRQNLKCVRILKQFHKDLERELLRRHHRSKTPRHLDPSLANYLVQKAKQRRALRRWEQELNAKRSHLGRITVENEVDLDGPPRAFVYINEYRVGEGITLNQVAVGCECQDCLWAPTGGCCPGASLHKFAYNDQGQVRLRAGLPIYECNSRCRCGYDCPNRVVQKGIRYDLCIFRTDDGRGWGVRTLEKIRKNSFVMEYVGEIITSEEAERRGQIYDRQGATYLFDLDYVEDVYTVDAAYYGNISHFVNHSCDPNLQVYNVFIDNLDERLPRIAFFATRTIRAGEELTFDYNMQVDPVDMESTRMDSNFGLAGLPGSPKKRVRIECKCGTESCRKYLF

| Substance | binding (GST-SUV39H1 N44 (human)) | binding [1] | binding (GST-SUV39H1 ΔN89 (human)) | binding [2] | binding [3] |
| --- | --- | --- | --- | --- | --- |
| histidine-tagged wild type Tax (His-Tax) (from UniProt P03409 1-353) | no binding | binds | binds | binds |  |
| wild type HTLV-1 Tax (pCG-Tax) (from UniProt P03409 1-353) |  |  |  |  | binds |
